# From patent US20070142282A1
# The chains behind the UniProt entries cited, without tags or fusion partners. Residues count along the entry.
# UniProt P16234, residues 24-524: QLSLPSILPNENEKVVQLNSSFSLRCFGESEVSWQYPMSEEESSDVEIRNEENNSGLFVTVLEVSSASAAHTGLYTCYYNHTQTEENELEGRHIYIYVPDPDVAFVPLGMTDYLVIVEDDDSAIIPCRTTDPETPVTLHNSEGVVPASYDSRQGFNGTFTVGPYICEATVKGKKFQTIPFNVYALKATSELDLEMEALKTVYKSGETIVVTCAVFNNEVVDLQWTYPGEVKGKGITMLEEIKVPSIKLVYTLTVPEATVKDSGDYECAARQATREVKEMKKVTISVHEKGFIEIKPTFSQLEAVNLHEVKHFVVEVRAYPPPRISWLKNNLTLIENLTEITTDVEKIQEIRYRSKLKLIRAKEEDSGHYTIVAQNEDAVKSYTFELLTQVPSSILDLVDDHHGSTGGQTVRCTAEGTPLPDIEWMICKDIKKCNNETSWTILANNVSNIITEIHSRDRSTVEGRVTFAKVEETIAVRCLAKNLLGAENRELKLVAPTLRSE
# No constants are given. Whether binding was seen depends on the method and setting. For some assays here: In cells and extracts the contact can be indirect. Some binding calls cover weakened binding; strength is not graded here. For some assays here: Sequences can lack the tags named with a protein.
# How the values were obtained:
# [1] = biological target: PDGF receptor α-Ig fusion protein (UniProt P16234); assay: precipitation of 35S-labelled medium with PDGF receptor α-Ig, protein A-sepharose, 12% PAGE
# [2] = biological target: PDGF receptor α-Ig fusion protein (UniProt P16234); assay: precipitation of 35S-labelled medium with PDGF receptor α-Ig, protein A-sepharose, SDS-PAGE
# [3] = biological target: PDGF receptor β-Ig fusion protein (UniProt P09619); assay: precipitation of 35S-labelled protein with PDGF receptor β-Ig, protein A-sepharose, 12% PAGE
# [4] = biological target: T1, neuropilin-2-Ig fusion protein (UniProt O60462); assay: pull-down of 35S-labelled 293T conditioned medium with NP2-Ig, SDS-PAGE, autoradiography
# T1 sequence (looked up): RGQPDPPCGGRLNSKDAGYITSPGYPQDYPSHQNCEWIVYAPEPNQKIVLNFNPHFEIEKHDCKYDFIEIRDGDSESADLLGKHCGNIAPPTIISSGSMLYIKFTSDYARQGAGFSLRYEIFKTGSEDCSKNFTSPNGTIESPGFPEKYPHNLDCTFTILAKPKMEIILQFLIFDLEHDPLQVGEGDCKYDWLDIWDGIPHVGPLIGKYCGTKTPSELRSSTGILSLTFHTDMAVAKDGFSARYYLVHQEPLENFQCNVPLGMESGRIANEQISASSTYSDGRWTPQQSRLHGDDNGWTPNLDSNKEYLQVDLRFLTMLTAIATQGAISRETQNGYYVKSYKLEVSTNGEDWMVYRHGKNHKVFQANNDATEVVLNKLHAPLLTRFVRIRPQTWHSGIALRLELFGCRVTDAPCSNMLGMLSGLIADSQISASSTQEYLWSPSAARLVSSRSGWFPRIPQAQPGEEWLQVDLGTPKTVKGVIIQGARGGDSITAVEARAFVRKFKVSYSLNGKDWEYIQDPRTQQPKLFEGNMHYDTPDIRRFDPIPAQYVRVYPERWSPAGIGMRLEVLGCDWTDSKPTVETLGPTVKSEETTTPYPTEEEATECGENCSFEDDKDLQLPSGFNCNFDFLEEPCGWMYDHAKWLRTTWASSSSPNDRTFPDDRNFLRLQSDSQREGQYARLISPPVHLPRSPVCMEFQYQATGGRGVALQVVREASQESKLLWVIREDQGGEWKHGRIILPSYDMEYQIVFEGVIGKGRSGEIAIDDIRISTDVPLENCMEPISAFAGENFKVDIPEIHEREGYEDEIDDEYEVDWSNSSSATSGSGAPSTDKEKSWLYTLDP
binding [1],binding [2],binding [3],binding [4],Substance
binds,binds,–,–,PDGF-B (from UniProt P01127 82-190) (ligand)
binds,–,no binding,–,PDGF-CΔN (from UniProt Q9NRA1 242-345) (ligand)
–,–,–,binds,VEGF-A165 (from UniProt P15692 207-395) (ligand)
